According to PubChem BioAssay AID1159614 (National Center for Advancing Translational Sciences (NCATS), 2016):
Among all 45,000 compounds or so, about 65 (0.1%) were called active. Calls follow the shape of the dose curve; as a rule, active = well fitted activation curve with a large enough effect; inconclusive = small, poorly fitted or top-dose-only effect; inactive = no such curve, though single readings can be large or run the other way. This is one part of the list.

Each compound was assayed against Galactocerebrosidase (Homo sapiens) (UniProt P54803) (assay: A Novel Cell-Based Assay to Identify Small Molecules for B -Galactocerebrosidase). Settings: 145M-Twi-hGALC-G270D cells (Twitcher mouse brain line with human GALC G270D), HMU-beta-Gal fluorescence, 48 h; series mostly up to 57.5 µM; activation: at the top concentration.
Sequence of UniProt P54803 (P54803 whole entry, looked up): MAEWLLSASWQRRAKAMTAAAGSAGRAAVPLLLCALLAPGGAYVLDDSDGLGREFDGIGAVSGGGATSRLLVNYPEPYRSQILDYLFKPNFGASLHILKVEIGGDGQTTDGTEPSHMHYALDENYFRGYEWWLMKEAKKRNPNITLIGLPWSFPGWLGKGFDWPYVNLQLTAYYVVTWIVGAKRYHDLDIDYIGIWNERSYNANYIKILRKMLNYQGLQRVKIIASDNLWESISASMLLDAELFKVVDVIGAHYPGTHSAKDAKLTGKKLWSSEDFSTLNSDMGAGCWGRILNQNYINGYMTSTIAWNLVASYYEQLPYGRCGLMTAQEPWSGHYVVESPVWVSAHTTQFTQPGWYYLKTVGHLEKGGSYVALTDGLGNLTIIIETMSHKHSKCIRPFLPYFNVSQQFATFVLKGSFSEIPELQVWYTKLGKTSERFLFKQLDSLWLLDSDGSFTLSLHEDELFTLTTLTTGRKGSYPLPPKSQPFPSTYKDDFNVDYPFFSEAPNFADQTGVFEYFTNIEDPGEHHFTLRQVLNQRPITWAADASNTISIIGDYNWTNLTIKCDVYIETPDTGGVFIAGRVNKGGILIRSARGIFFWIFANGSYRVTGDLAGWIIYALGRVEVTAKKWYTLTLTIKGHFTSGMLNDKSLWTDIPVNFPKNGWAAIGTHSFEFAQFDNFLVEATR
How it was run: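 Live 145M-Twi cells (Twitcher mouse brain-derived, GALC-null) stably expressing human GALC-G270D, with a wild-type GALC line, were compound-treated. Residual GALC activity was then read as fluorescence from 0.1 mM final HMU-β-gal at pH 5.2; higher signal means activation.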
Also: 0% is about no effect; nearly all actives have a fitted effect of over 65% in size.

activation, inactive:
COc1ccc(/C=C/C(=O)Nc2cc(-c3nc4ccccc4o3)ccc2OC)cc1 -14.4%
Oc1c(Cl)cc(Cl)c2cccnc12 -19.1%
COc1ccc(CNC(=O)C2CCN(C(=O)c3cnn(-c4ccccc4)c3-n3cccc3)CC2)cc1 -30.2%
Cc1ccc(NC(=O)CSc2nnc(-c3cc4occc4n3C)n2-c2ccccc2C)c(C)c1 -7.94%
FC(F)(F)c1cccc(N2CCN(c3nc4ccccc4n4cnnc34)CC2)c1 -36.9%
COc1ccc(-n2c(SC)nc3sc4c(c3c2=O)CCN(C(C)=O)C4)cc1 -5.31%
O=c1c2sc3ccccc3c2n(Cc2cccc(C(F)(F)F)c2)c(=O)n1-c1ccccc1 -1.84%
CC(C)Oc1ccc(CNC(=O)CN2C(=O)c3cccnc3Oc3ccc(Cl)cc32)cc1 -33.6%
CCS(=O)(=O)N1CCc2cc(C(=O)NC(C)c3ccccc3)ccc21 (stereo unspecified) -20.4%
Cc1ccn2c(=O)cc(COc3ccc(NC(=O)C(C)(C)C)cc3)nc2c1 -13.5%
Cc1ccc2c(c1)N(C(=O)Nc1ccc(Br)cc1F)CCO2 -16.5%
COC(=O)c1ccccc1NC(=O)CSc1n[nH]c(C)n1 -10.4%
CC(C)(CC(=O)NCc1ccc(Cl)cc1Cl)CC1=NS(=O)(=O)c2ccccc2N1 7.83%
Cn1c2c(c(=O)n(C)c1=O)C(c1ccccc1C(F)(F)F)CC(=O)N2 (stereo unspecified) -0.539%
CCOC(=O)c1ccc(CN(Cc2ccc(F)cc2)S(=O)(=O)c2ccc(F)c(C(=O)Nc3ccccc3C(F)(F)F)c2)cc1 -7.35%
COC(=O)c1ccc(NS(=O)(=O)c2ccc3c(c2)n(C)c(=O)c(=O)n3C)cc1 -9.13%
COc1ccc(S(=O)(=O)c2cc3cc(C(C)(C)C)cc(O)c3oc2=O)cc1 -34.4%
Cn1c(COc2ccccc2C(C)(C)C)nc2ccccc21 -5.18%
CCCCCn1c(=N)c(S(=O)(=O)c2ccc(C)cc2)cc2c(=O)n3cc(C)ccc3nc21 -13.8%
CCc1ccccc1N(CC)C(=O)C(=O)Nc1ccc2nc3n(c(=O)c2c1)CCCCC3 -0.167%
O=C(c1ccc2c(c1)N(Cc1cccc(Cl)c1)C(=O)c1ccccc1S2(=O)=O)N1CCc2ccccc21 -12.5%
COc1cc(Cl)c(C)cc1NC(=O)C1CCCN(c2ncnc3onc(-c4ccc(F)cc4)c23)C1 (stereo unspecified) -4.45%
CCNC(=O)CC1C(=O)N(c2ccc(F)cc2)C(=O)N1Cc1ccc(OC)c(OC)c1 (stereo unspecified) -0.0347%
Cc1ccc(C(=O)N2CCN(c3cccc(Cl)c3)CC2)cc1-n1c(C)nc2cccnc21 -7.56%
COc1ccc2c(c1)c1c(c(=O)n(-c3ccc(F)c(Cl)c3)c(=O)n1Cc1ccccc1F)n2C -16.5%
CCCCNC(=O)c1ccc2c(c1)NC(=O)C(C(C)C)N2 (stereo unspecified) -3.24%
COC(=O)c1c(-c2ccc(Cl)cc2)noc1N1CCN(c2ccccc2F)CC1 -0.0835%
CCOC(=O)C1=C(CN(CC)Cc2ccccc2)NC(=O)NC1c1ccc(OC)cc1 (stereo unspecified) -18.4%
O=C1CN(C(=O)c2cccc(Br)c2)C(c2ccccc2)c2cc(Cl)ccc2N1 (stereo unspecified) -18.8%
CCOc1cccc(-c2nc3ccccc3c(=O)o2)c1 -2.71%
COc1cccc(C(=O)Nc2nc(-c3nnn(-c4cc(C)ccc4C)c3C)ns2)c1 -8.11%
N#Cc1c(-n2ncnc2-c2cccc(Cl)c2)sc2c1CCCCC2 -7.19%
COc1ccccc1NC(=O)C(=O)c1cc(C)n(-c2cc(C)cc(C)c2)c1C -9.32%
O=C(CNS(=O)(=O)c1ccc(Br)s1)N1CCN(c2ccc(F)cc2)CC1 -12%
C[C@]12CCC(=O)C=C1CC[C@@H]1[C@@H]2CC[C@@]2(C)[C@H]1CC[C@]2(O)C(=O)CO -12.8%
CCS(=O)(=O)NCCc1sc2nc(-c3ccc(OC)cc3)nn2c1C -14.4%
Cc1ccc(NC(=O)N2CCN(C(=O)c3nsc4ccccc34)CC2)cc1C 5.89%
COCCNS(=O)(=O)c1cc(-c2nn3c(C)nnc3c3ccccc23)ccc1C -3.49%
Cc1cc(C)c2oc(C(=O)NCCc3ccc(S(N)(=O)=O)cc3)cc(=O)c2c1 -7.09%
CC(C)(C)c1ccc(C(=O)NC2=NC(c3cccc(F)c3)CC(=O)N2)cc1 (stereo unspecified) -9.51%
COC(=O)C1=C(C)NC(C)=C(C(=O)OC(C)(C)CN(C)CCC(c2ccccc2)c2ccccc2)C1c1cccc([N+](=O)[O-])c1 (stereo unspecified) -14.2%
O=C1CC(c2ccccc2)Cc2[nH]c(=O)c(-c3nc(-c4ccc(Cl)c(Cl)c4)cs3)cc21 (stereo unspecified) -9.85%
COc1ccc(Cl)cc1NC(=O)C(=O)NCc1ccc(Cl)cc1 -17.9%
Cc1ccc(OC(=O)CSc2nnc(-c3ccc4c(c3)OCO4)o2)c(C)c1 3.24%
CCOc1ccccc1NC(=O)N1CC(C)Oc2ccc(Cl)cc21 (stereo unspecified) 21.6%
CCOC(=O)c1cnc(NCc2ccc(OC)cc2OC)c2ccccc12 -2.74%
Cc1cccn2c(=O)cc(COc3ccc(NC(=O)COc4ccc(F)cc4)cc3)nc12 -9.78%
Cc1cccc(CCn2c(=O)c3ccccc3n(Cc3ccccc3C)c2=O)c1 -9.79%
COc1cccc(-c2nc3c(c(SCC(=O)Nc4cccc(C)c4C)n2)Cc2c(CO)cnc(C)c2O3)c1 1.17%
COc1cccc(NC(=O)CN2C=NS(=O)(=O)c3ccccc32)c1 -20%
Cc1ccc(C(=O)c2sc(Nc3ccc(F)cc3)c(C#N)c2N)cc1 -16.7%
O=C(O)CCc1ccc(-c2ccc(Br)cc2)n1-c1ccccc1O -19.6%
CCOC(=O)C1CCN(c2cc3c(cc2NC(=O)c2ccccc2Cl)n(C)c(=O)n3C)CC1 -13.4%
CNC(=O)C1CCCN(c2nnc(C)c3c(C)n(-c4ccccc4)nc23)C1 (stereo unspecified) -18.7%
CCOCCCNC(=O)c1ccc(-c2nc(CS(=O)(=O)c3ccccc3)c(C)o2)cc1 2.81%
COc1ccc(-c2nc3sc(CCNC(=O)C(C)(C)C)c(C)n3n2)cc1 -23.1%
Cc1cc2nc(-c3ccc(NC(=O)c4ccc(OCC(C)C)cc4)cc3)oc2cc1C -0.631%
O=C(Nc1ccc(F)c(Cl)c1)c1cc(S(=O)(=O)NCc2ccc3c(c2)OCO3)ccc1F -3.93%
CCOc1cccc2sc(N(Cc3cccnc3)C(C)=O)nc12 -4.39%
CCCCN(CC)CCNC(=O)Cn1cnc2sc(C)c(S(=O)(=O)N3CCN(c4ccccc4OC)CC3)c2c1=O -26.1%
CCOc1ccc2nc(N3CCCC(C(=O)NCCc4ccc(OC)cc4OC)C3)sc2c1 (stereo unspecified) -16.4%
